# Data reported in publication PMC6919601, “Identification of Plasmodium dipeptidyl aminopeptidase allosteric inhibitors by high throughput screening” (PLoS ONE, 2019).
# The whole screen tested about 110,000 compounds, of which about 230 (0.21%) showed an effect of 50% or more. This is one part of the list.
# Biological target: DPAP1 (Plasmodium falciparum, UniProt Q8IIJ9)
# Test: primary screen, percent inhibition; read by cleavage of a fluorogenic dipeptide substrate; higher = more effect of the substance
# Set-up: species or system P. falciparum D10 trophozoite lysates; single well
# 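Note: 30 min substrate incubation versus DMSO and 10 µM JCP410 controls.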
# DPAP1, sequence (Q8IIJ9 whole entry, looked up): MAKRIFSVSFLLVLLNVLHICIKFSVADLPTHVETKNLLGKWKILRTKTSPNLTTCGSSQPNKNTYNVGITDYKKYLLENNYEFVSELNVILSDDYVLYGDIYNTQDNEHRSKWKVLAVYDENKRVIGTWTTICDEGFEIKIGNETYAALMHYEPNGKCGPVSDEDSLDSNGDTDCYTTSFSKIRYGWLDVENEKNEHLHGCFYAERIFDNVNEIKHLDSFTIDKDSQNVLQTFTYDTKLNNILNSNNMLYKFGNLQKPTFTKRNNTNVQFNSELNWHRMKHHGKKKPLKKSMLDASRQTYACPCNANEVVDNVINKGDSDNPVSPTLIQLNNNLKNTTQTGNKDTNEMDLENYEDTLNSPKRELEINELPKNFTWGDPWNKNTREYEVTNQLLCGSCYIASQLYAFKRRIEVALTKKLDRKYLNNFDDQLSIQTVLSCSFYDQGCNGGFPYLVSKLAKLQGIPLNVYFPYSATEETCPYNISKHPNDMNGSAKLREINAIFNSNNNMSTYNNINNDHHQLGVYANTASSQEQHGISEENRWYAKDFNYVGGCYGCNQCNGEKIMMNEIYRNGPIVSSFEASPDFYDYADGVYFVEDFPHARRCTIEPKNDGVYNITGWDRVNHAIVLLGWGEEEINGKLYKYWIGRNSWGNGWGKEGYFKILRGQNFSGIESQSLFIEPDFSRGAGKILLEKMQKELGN
row,SMILES,% Inhibition @ 10 uM [%]
1,Cc1c(C(=O)NCc2cccnc2)oc2c1-c1nn(Cc3ccccc3Cl)cc1CC2,-2.37
2,CCc1ccc(-c2cn3nc(N4CCC(C(=O)NCCOC)CC4)sc3n2)cc1,-3.34
3,CN(CCc1ccccc1)CC(O)c1ccccc1 (stereo not shown),1.57
4,CC(=O)NS(=O)(=O)c1cnccc1Sc1ccc(Cl)c(Cl)c1,-1.59
5,O=C(NCCCN1CCOCC1)c1cc(-c2ccccc2)nc2ccccc12,-2.09
6,CCC1CCCCN1C(=O)C1C2CCC(O2)C1C(=O)O (stereo not shown),-4.82
7,O=C(c1ccccc1)N1CC(COc2ccccc2)OC(c2cccc(O)c2)O1 (stereo not shown),-1.06
8,CC(C)CNC(=O)c1ccc(Cl)cc1Cl,1.38
9,COc1cc2c(cc1/C=C1\SC(=O)N(CCOc3ccc(F)cc3)C1=O)OCO2,0.316
10,Cc1ccc(C)c(OCC(=O)N2CCN(c3ccccn3)CC2)c1,-3.96
11,CCCCn1c2nc3ccccc3nc2c2c(N)ncnc21,-3.41
12,CC(C)CNS(=O)(=O)c1ccc(OCC(=O)Nc2ccc3c(c2)OCCO3)cc1,-5.81
13,CCCC[C@H](NC(=O)[C@H](CC(C)C)NC(=O)OCc1ccccc1)C(=O)CC(=O)OCC,0.174
14,Sc1nnc2n(CCOc3ccccc3)c3ccccc3n12,-2.29
15,CN(C)C(CNC(=O)NC1CCCCC1)c1cccnc1 (stereo not shown),-3.51
16,COc1cc(C2C(C#N)=C(N)Oc3[nH]nc(-c4cccs4)c32)cc(OC)c1OC (stereo not shown),-6.59
17,COCCN1C(=O)c2[nH]nc(-c3ccccc3O)c2C1c1ccc(OCC(C)C)c(OC)c1 (stereo not shown),0.155
18,COc1cc(NC(=O)c2cc3nc(C(F)F)cc(C(F)F)n3n2)cc(OC)c1OC,0.389
19,CCN(CC)C(=O)c1ccc(NC(=O)c2ccccn2)cc1,-0.884
20,CN1CCN(C(=O)c2cc(-c3ccc(O)cc3)on2)CC1,1.37
21,Cc1cccc(C(=O)Nc2cc(-c3ccccc3)no2)c1,-1.47
22,CCOc1ccc(-c2cc(C(=O)O)c3cc(Br)ccc3n2)cc1,7
23,CC(=O)OCC12COC(C)C(C1)C(C)=CC2C (stereo not shown),1.29
24,CC(C)CC(C(=O)NCC#N)c1cccc(-c2ccc([N+](=O)[O-])cc2)c1 (stereo not shown),0.173
25,COCCCNc1nc2ccc(C)cc2n2cnnc12,-2.42

row,SMILES,% Inhibition @ 10 uM [%]
1,COCCNC(=O)c1ccc(CS(=O)(=O)c2ccccc2OC)o1,-3.09
2,Clc1ccc(OCc2nc(-c3ccccc3)no2)cc1,1.96
3,O=C(NCc1cccc(CNC(=O)C2CCCC2)c1)C1CCCC1,-1.84
4,CCCCCCCCOc1ccc(/C=C(\C#N)c2nc(-c3ccccc3)cs2)cc1,1.41
5,Cc1cc(C)nc(SCC(=O)Nc2ccc(Cl)c(Cl)c2)n1,-5.85
6,Cc1cccc(CCNC(=O)Cc2c(C(=O)O)[nH]c3ccccc23)c1,0.121
7,CC1(c2ccccc2)CC(C)(C)N(C(=O)CN2C(=O)CCC2=O)c2ccccc21 (stereo not shown),-5.13
8,c1ccc(CNc2nc(N3CCOCC3)nc3ccccc23)cc1,4.74
9,NS(=O)(=O)c1ccc(N2C(=O)C3C4c5ccccc5C(c5ccccc54)C3C2=O)cc1 (stereo not shown),-6.71
10,Cc1cc2oc(C(=O)Nc3sc4c(c3C(=O)NCc3cccnc3)CCCC4)cc(=O)c2cc1C,1.9
11,CSCCC(C#N)NC(=O)[C@H](CC(C)C)NC(=O)OCc1ccccc1 (stereo partly shown),0.174
12,CCNS(=O)(=O)c1cccnc1N1CCN(C(C)C)CC1,-7.62
13,NC(=O)c1ccc(C(N)=O)c(-c2ccccc2)c1,-0.0369
14,CCN(CC)C(=O)c1cc(-c2ccccc2O)on1,-1.21
15,Cc1ccc(NC(=O)c2c(-c3ccccc3)noc2C)c(C)c1,-3.97
16,COc1cc(OC)cc(C(=O)Nc2cccc(NC(C)=O)c2)c1,-4.59
17,O=C(Cn1ncc2c3ccccc3nc-2c1O)NC1CCN(Cc2ccccc2)CC1,-4.51
18,COc1cc(SC#N)ccc1/N=C/c1c(C)nn(-c2cccc(Cl)c2)c1O,5.31
19,C=CCC(CC=C)(NC(=O)c1cccc(C)c1)c1ccccc1,-1.84
20,CC1CC(C)CN(C(=O)c2cc3c(s2)-c2ccccc2S(=O)(=O)C3)C1 (stereo not shown),2.84
21,CCOc1ccccc1CNCc1c(C(=O)O)c(C)n(Cc2ccccc2F)c1C,1.41
22,CC(=O)Nc1ccc(N2C(=O)c3cccc(NC(C)=O)c3C2=O)cc1,1.96
23,CCNC(=O)/C(C#N)=C/c1ccc(C(C)(C)C)cc1,6.51
24,COc1cc(CN2CCCC(O)C2)cc2c1OCO2 (stereo not shown),0.634
25,COc1cccc(/C=c2\sc3nc(-c4ccc(C)cc4)nn3c2=O)c1OC,-3.33

row,SMILES,% Inhibition @ 10 uM [%]
1,COc1ccccc1CC(C)N[C@H]1CC[C@H](O)CC1 (stereo partly shown),-1.81
2,NS(=O)(=O)c1cccc(S(=O)(=O)c2ccc(Cl)c(Cl)c2)c1,-3.27
3,CC(=O)Nc1ccc(S(=O)(=O)Nc2sc3c(c2C(N)=O)CCCCCC3)cc1,1.25
4,c1ccc(-c2cnc(N3CCOCC3)nc2)cc1,1.72
5,Cc1ccccc1NCN1C(=O)C2CC=CCC2C1=O (stereo not shown),-1.84
6,Cc1ccc(C2=NC(C)(C)NC2=S)cc1,8.4
7,CCCCOC(=O)c1ccc(NC(=O)c2ccco2)cc1,-4.06
8,CCCCN(CCCNC(=O)c1cc(O)nc2ccccc12)Cc1ccccc1,-1.34
9,CC1CCc2c(sc(NC(=O)c3ccco3)c2C(N)=O)C1 (stereo not shown),-4.03
10,CC(NS(=O)(=O)c1ccc2c(c1)C(=O)c1ccccc1C2=O)c1ccccc1 (stereo not shown),3.39
11,O=c1cccc2n1C[C@H]1C[C@@H]2CN(Cc2cccc(Cl)c2Cl)C1,-1.59
12,Cc1ccccc1C(=O)NCC1CCCO1 (stereo not shown),-7.84
13,COc1ccc(C(=O)CSc2nc(O)cc(O)n2)cc1,0.266
14,Cc1c(Br)c(C(=O)Nc2sc3c(c2C(N)=O)CCC3)nn1C,-3.03
15,CCOc1ccccc1N1CCN(C(=O)c2ccc(F)cc2)CC1,-3.72
16,CC(C)(C)Nc1c2ccccc2nc2ccccc12,-2.9
17,NC1=C([N+](=O)[O-])C(=O)c2ccccc21,-0.197
18,O=C(NCc1ccco1)C1CCCN(c2cnccn2)C1 (stereo not shown),2.29
19,Cc1cccc(OCCCn2c(C(C)O)nc3ccccc32)c1 (stereo not shown),-2.17
20,CCOC(=O)C1=C(CSc2nc(C)cc(COC)c2C#N)NC(=O)NC1c1ccc2c(c1)OCO2 (stereo not shown),2.99
21,Cc1ccc(C(=O)N(CCO)C2CCCCC2)cc1,0.215
22,COc1cccc(/C=C(\C#N)c2nc(-c3ccc(Br)cc3)cs2)c1,-4.3
23,CCOC(=O)c1ccc(OCC2c3cc(OC)c(OC)cc3CCN2C(=O)C(C)C)cc1 (stereo not shown),-5.93
24,CCCNC(=O)C1CCN(S(=O)(=O)c2cc(Cl)ccc2Cl)CC1,2.43
25,Cc1ccc2c(CNCc3ccc4c(c3)OCO4)c(C(=O)O)n(Cc3ccc(F)cc3)c2c1,-0.959

row,SMILES,% Inhibition @ 10 uM [%]
1,CCc1nc2ccccc2n1CC(O)COc1cccc(OC)c1 (stereo not shown),3.93
2,COc1cccc(NC(=O)C2C(C(=O)O)C3C=CC2C32CC2)c1 (stereo not shown),-3.26
3,N#CC1=C(N)OC2=C(C(=O)CC(c3ccccc3)C2)C1c1ccccc1F (stereo not shown),10.5
4,Cc1ccc(-n2ncc3c(N4CCOCC4)ncnc32)cc1Cl,-0.247
5,CCOC(=O)c1sc2nc(-c3ccc(C)cc3C)cc(-c3ccccc3)c2c1N,-0.158
6,C=CCOc1ccc(/C=c2\sc3nc(-c4ccc(F)cc4)nn3c2=O)cc1OC,0.347
7,COc1ccc2[nH]c3ccccc3c2c1,-1.46
8,Nc1nn(-c2ccccc2)nc1C(=O)OCc1ccc(Cl)cc1Cl,-0.703
9,CCOC(=O)c1c(CN2CCOCC2)n(C)c2ccc(O)cc12,-3.93
10,CCC(C)NC(=O)c1cc2nc(-c3ccccc3)cc(-c3ccccc3)n2n1 (stereo not shown),-4.13
11,COc1ccccc1C(=O)Nc1c(-c2ccccc2)nc2ccccn12,5.55
12,CCOC(=O)C1=C(C)N=c2s/c(=C\c3ccc(C(C)C)cc3)c(=O)n2C1c1ccc2c(c1)OCO2 (stereo not shown),-6.88
13,CCN(CC)CCNC(=O)Cn1ncc2c3ccccc3n(Cc3cccc(Cl)c3)c2c1=O,0.137
14,COc1ccc2[nH]c3c(=O)n(CCCCCC(=O)NCc4ccc5c(c4)OCO5)c(=S)[nH]c3c2c1,1.24
15,CCc1ccc(C2C(C#N)=C(N)Oc3cc(C)oc(=O)c32)cc1 (stereo not shown),-2.32
16,O=C(NCCN1CCN(C(=O)c2ccc(Br)cc2)CC1)C(=O)NCc1ccco1,2.09
17,O=[N+]([O-])c1ccc(-c2ccc(S(=O)(=O)NCCN3CCCC3)cc2)cc1,-4.96
18,CC(C)CCn1c(CN(C)Cc2ccccc2)nc2c1c(=O)n(C)c(=O)n2C,2
19,CC1CC(C)CN(C(=O)C(Cc2ccccc2)NS(=O)(=O)c2cccs2)C1 (stereo not shown),-9.05
20,Cc1ccc(C)c(OCc2ccc(C(=O)NCc3ccc(F)cc3)o2)c1,2.32
21,Cc1nc2cc(-c3ccc(Cl)cc3)nn2c(C)c1CCC(=O)NCc1ccc2c(c1)OCO2,-2.25
22,COc1ccc2[nH]c3c(=O)n(N)c(=O)[nH]c3c2c1,-3.44
23,CC(=O)c1cccc(NC(=O)c2ccc3c(c2)C(=O)N(Cc2cccnc2)C3=O)c1,3.81
24,O=C(c1ccccc1)N1CCC(c2nc(O)c3nnn(Cc4c(F)cccc4F)c3n2)CC1,-4.07
25,CCN1CCC2(CC1)OC(=O)C(C)=C2C(=O)N1CCN(C(=O)c2ccco2)CC1,2.62
